Test results as given in the supplement of paper PMC3334620.
The full ranking holds about 33,000 sequences; the median of “E-score (-0.5 to 0.5)” is about -0.017, and the highest 2% start at about 0.3. This is one part of the list.

What follows are sequences tested against T1, Sut1 (UniProt P53032) (assay: PBM E-score (8-mer binding enrichment) (E-score (-0.5 to 0.5)); higher = stronger / more preferred TF binding; most listed sequences are background and not binding sites). Details: protein concentration: 200 nM; construct: GST-full length.
T1 sequence: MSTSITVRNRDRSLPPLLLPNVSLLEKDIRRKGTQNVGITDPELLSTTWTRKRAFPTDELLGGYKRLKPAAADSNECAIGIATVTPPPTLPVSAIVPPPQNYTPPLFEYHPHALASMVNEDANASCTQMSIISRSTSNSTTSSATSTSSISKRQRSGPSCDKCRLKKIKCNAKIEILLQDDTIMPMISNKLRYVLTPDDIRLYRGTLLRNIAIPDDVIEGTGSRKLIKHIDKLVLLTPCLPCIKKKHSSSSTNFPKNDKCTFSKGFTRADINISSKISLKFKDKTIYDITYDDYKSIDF
Method in brief: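 The E-score, a modified Wilcoxon-Mann-Whitney statistic, was computed by the Universal PBM Analysis Suite for every ungapped eight-base word pooled with its reverse complement. Scans behind it were normalised with masliner after bound GST-tagged yeast transcription factors were detected with fluorescent anti-GST. The proteins, at about 100-200 nM, had been applied to universal all-10-mer Agilent arrays made double-stranded by primer extension.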

Sequence | PBM E-score
AACCTTCT | -0.00228
CGGGCACG | -0.13
ACTGGGCA | -0.161
ACGTCGCA | -0.276
GCGCAATA | -0.0777
GGCACATA | -0.144
AGAAGGGC | -0.136
ATCAGGGG | -0.231
GTGTCCCA | -0.318
AGGTCGAG | -0.257
GGAGGCAA | -0.144
CAGCGAAC | 0.0392
CACACACG | -0.0409
AGAGATAA | 0.063
AACGCAGA | -0.00521
AGTTTTTC | 0.236
CGTGGACC | -0.216
ATCGGCTG | 0.0251
ATCGATTC | 0.122
GGGCTGAA | -0.092
CGTTGCCA | -0.0882
GACGGTGA | -0.215
CCATTCGA | -0.195
CGTAGAGC | -0.295
CTTCCCAC | -0.0751

Sequence | PBM E-score
GCAACCAA | 0.0756
TCAACGCA | 0.0225
GACCCTCC | -0.0622
ATCGACGG | -0.0907
AGAACTAA | 0.141
GGAACACC | 0.0616
GGCTCTAC | -0.205
TAAGACAA | 0.0479
AAGATGTA | 0.0242
CTCCGAGC | 0.437
CATAATTA | 0.317
ACCCTAAT | -0.101
ACGGGTTC | -0.119
CGGATCAA | 0.16
CCGCCGCA | -0.0598
CGTCCACA | -0.126
CCCGGATA | 0.123
CTCTCATC | 0.113
CATCGGGA | 0.0182
GGCAAATA | 0.0393
ACACCGAC | 0.0125
ATGATTTA | 0.222
GTCCCATA | -0.269
CAGGAGGG | -0.32
CGGACACC | 0.00585

Sequence | PBM E-score
TAGTCTGA | -0.0642
GTCCGACA | 0.366
GGGCGTTA | -0.0386
AGCGGAGC | 0.137
CGAATTGC | 0.118
AGGTACCG | -0.0244
GGACTATA | 0.286
GAATCTGC | 0.00471
TCGCGGAA | -0.0199
CCGACCGA | 0.0287
GAGCCGCA | -0.125
CTACCCCC | -0.2
ATTAGCAC | 0.0145
GGACTGCC | -0.0114
ATACGGAT | 0.0822
ATCCGGCG | -0.00912
ACAGCGCA | -0.217
AGTTTACA | 0.106
ATGTGAAT | 0.0892
AGCTACAG | -0.213
AAATCCAT | 0.102
CCAAGCGC | -0.107
CCTCCTTC | -0.156
AAAGAAGC | 0.15
CCGACTCC | 0.321

Sequence | PBM E-score
GGTAATCA | -0.126
TAAAAGGA | 0.0609
CTTGCGTC | -0.165
GCGAATTA | 0.23
AGAGAGAC | -0.144
GACGTGGA | -0.0991
AAGTAGCC | -0.175
AACATTTC | 0.152
ACAATTGG | -0.142
GAGCTTGC | -0.242
CCCTTTTA | -0.127
CGGACTAG | 0.452
GCCATACC | -0.234
TCGTCAGA | -0.2
GGCGAGGA | -0.214
GAGTTATA | 0.2
AGGATAGG | -0.0118
GCGGCAAC | -0.143
ACATGCGA | -0.308
GCTATCCA | -0.00457
GCGAGAGA | -0.224
ATGTGGTA | -0.0495
CGTTAGAG | -0.0163
GAGGACAC | -0.0716
ACCTCCAC | 0.0587

Sequence | PBM E-score
ACTGATCT | 0.0362
ATCGGGTC | -0.0782
CAGCACTC | -0.0304
ATTCTTAA | -0.0164
CCGGGAAC | 0.0019
CCCTTGCC | -0.304
CCACCGGC | 0.0248
CATCGCCG | 0.112
ACCCCTTC | -0.251
GCGACACC | 0.00101
GATTTTGC | 0.00508
CGTCTTTA | 0.215
GATTTAAA | 0.194
CGTCTTGC | -0.179
GCCCTTTA | -0.259
GCTTGTTA | 0.109
ACCACCAT | -0.0419
AATAAGCT | 0.111
GCTATAGC | -0.173
CCCCAGTC | -0.193
CAGCAATA | 0.0212
AAGCTAGG | -0.0407
TACTTTAA | 0.103
ACAAGGGG | -0.221
TTCACGAA | -0.125

Sequence | PBM E-score
ATGGCTTA | -0.09
ACCTATCG | 0.092
GGCCGATA | -0.152
ATCAAGAT | 0.158
AGGGCTTC | -0.139
GCCATTAC | -0.0938
CCAATATA | 0.0675
CATTCCGG | 0.194
CAGGCCCC | -0.367
AGCATAGG | -0.172
ACACTAGA | 0.0902
CGGATATC | 0.174
ATAGTCGA | 0.0327
TCTATAAA | 0.254
CCCATGCA | -0.116
ACAACTAT | 0.0737
CATCTTAC | 0.00084
ATTGATGA | 0.18
CGGCCCAA | -0.116
CGGAACCA | 0.221
TTAGTAAA | 0.211
ACCGCGAG | -0.18
GACTAGCC | -0.0449
ACGATGGA | 0.159
AAGTAGGC | -0.0115

Sequence | PBM E-score
AGATGCCG | -0.054
AGGGGATG | -0.276
ACAGAAGA | 0.0645
GTACGCTA | -0.118
ACCCACAT | 0.00107
CCACAAAG | 0.0384
CCGAATAA | 0.268
ACGGTGTG | -0.237
ACATTTTG | 0.103
TCCTCAGA | 0.0862
CGCGCAAG | 0.00201
CAACAACC | 0.119
CGAGCCAC | -0.287
CCTCTGAC | -0.203
CTAAGTTA | 0.126
AAGATCAT | 0.0744
AACAGAGC | -0.14
CTGCGAAG | -0.221
ATAGACGC | 0.0447
ATCAGGAA | -0.137
CCGCTGCA | -0.11
CTGTGACA | -0.208
AACATCTG | -0.0906
GGCACCCC | -0.286
AGCCGAGA | -0.0181

Sequence | PBM E-score
ATGCCCCA | -0.0978
CGACTAGC | 0.05
AGACACGG | -0.0756
CTGTCTTA | -0.0519
CAAGGAGG | -0.0941
TCGGGAGA | -0.0164
AATCTTCT | 0.0431
AGAATCCG | 0.00193
GAGCGTGC | -0.109
ATATTTGC | 0.138
AGCAGATC | -0.00869
ATCGCAGG | -0.198
GGATTCTA | 0.0493
GGATGTAA | 0.108
ATTGAGAC | -0.0256
CACTTTAG | -0.0413
ATCTGTTC | 0.0938
CTCGTAGC | -0.133
AGACGCAA | 0.0523
CGGGCGAG | -0.104
ATCGCCTG | -0.191
AAATAACG | 0.129
GCAGAGGC | -0.286
GGGCAGAA | -0.0139
CATATCTA | 0.152

Sequence | PBM E-score
TGTGCAAA | -0.126
CGTCTTAC | -0.00247
CCCTTACG | -0.249
CCGAAATC | 0.232
AGCGGGTA | -0.167
GGCTCAAC | -0.256
CATGCCCC | -0.254
TGTTGGAA | 0.063
CGTCTCCC | 0.0386
AACACGCA | 0.122
AGTACAAT | 0.193
GCATGCGC | -0.121
AGACTTGA | 0.0388
ACTACAGC | -0.0548
CCACGAGG | -0.154
AAATATAA | 0.273
CTGTCCAC | -0.19
GGTGGGGA | -0.0484
AAACTGTA | 0.062
